Here are results for 1 molecule from patent US20050214830A1, “G protein-binding proteins and polynucleotides encoding the same” (Wyeth, priority 1998, published 2005).

Assay [1] deals with T1, rat Gαs (Rattus norvegicus, UniProt P63095).
T1 construct: fusion proteins containing C-terminal regions of Gα proteins in Y2H assays; expressed in transfected cells; host or cells: yeast strain CY770, plasmid pACT2
Kind of assay: Yeast 2-hybrid (Y2H) bioassay for BBP interaction with Gαs. Particulars: BBP intracellular loop as Gal4 DNA-binding domain fusion; C-terminal region of Gα as Gal4 activation domain fusion; compared to vector. The source says: (§1) Yeast 2-hybrid assays. Y2H expression plasmids were constructed in the vectors pAS2 and pACT2 (Wade Harper et al., 1993). Strain CY770 (Ozenberger and Young, 1995) served as the host for Y2H assays. Sequences encoding the BBPI intracellular loop were amplified using the oligonucleotides 5′-CCTTCC ATGGAAGTGGCAGTCGCATTGTCT [SEQ ID NO:24] plus 5′-AACACTCGAG TCAAAACCCTACAGTGCAAAAC [SEQ ID NO:25]. This product, containing BBP1 codons 185 to 217, was digested with NcoI+XhoI and cloned into pAS2 cleaved with NcoI+SaII to generate pOZ339. Sequences encoding the BBP2 intracellular loop were amplified using the oligonucleotides 5′-CCATG GCCACTTTACTCTACTCCTTCTT [SEQ ID NO:26] plus 5′-CTCGAG TCA AAT CCC MG TCC TCC MG CG [SEQ ID NO:27]. […]
(§2) The various combinations of plasmids were transformed into strain CY770 by standard protocols. […] Cells were concentrated by centrifugation, counted and 10-fold serial dilutions made from 10^4 to 10^8 cells per ml in sterile water. […]
(§3) BBP1 contains a structural motif known to be a Gα protein activating sequence in the related G protein-coupled receptors. The intracellular sequences of each BBP were expressed as fusion proteins and assayed. for physical interactions with fusion proteins containing C-terminal regions of Gα proteins in Y2H assays.

In assay [2] the target is T2, rat Gαo (Rattus norvegicus, UniProt P59215).
T2 construct: fusion proteins containing C-terminal regions of Gα proteins in Y2H assays; expressed in transfected cells; host or cells: yeast strain CY770, plasmid pACT2
T2 sequence (P59215 213-354 limits assumed): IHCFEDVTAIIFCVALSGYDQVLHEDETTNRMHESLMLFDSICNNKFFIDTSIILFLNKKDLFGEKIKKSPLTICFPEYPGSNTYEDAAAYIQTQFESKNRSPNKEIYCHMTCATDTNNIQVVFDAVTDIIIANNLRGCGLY
The assay can be described thus: Yeast 2-hybrid (Y2H) bioassay for BBP interaction with Gαo. Particulars: BBP intracellular loop as Gal4 DNA-binding domain fusion; C-terminal region of Gα as Gal4 activation domain fusion; compared to vector.
Excerpt: as §1, §2, §3

Assay [3] addresses T3, rat Gαi2 (Rattus norvegicus, UniProt P04897).
T3 construct: fusion proteins containing C-terminal regions of Gα proteins in Y2H assays; expressed in transfected cells; host or cells: yeast strain CY770, plasmid pACT2
The assay can be described thus: Yeast 2-hybrid (Y2H) bioassay for BBP interaction with Gαi2. The conditions noted are these: BBP intracellular loop as Gal4 DNA-binding domain fusion; C-terminal region of Gα as Gal4 activation domain fusion; compared to vector.
Excerpt: as §1, §2, §3

Assay [4] has as its system Human Ntera2 (Nt2) stem cells. The assay can be described thus: Staurosporine-induced nuclear condensation (apoptosis) in transfected Nt2 stem cells. In kind it is cell-based. Particulars: recombinant expression in Nt2 stem cells, 100 nM staurosporine for 3 hrs. From the text:
Mammalian expression plasmids. BBP cDNAs were modified by polymerase chain reaction (PCR) for expression from the vector pcDNA3.1 (Invitrogen Corp., Carlsbad, Calif.). BBP1 cDNA was amplified from pBBP1-fl (ATCC #98617); from the third potential translation start site to the translation stop codon, adding a 5′ EcoRI and a 3′ SaII site for cloning. The BBP1 cDNA contains three potential translation starts (codons 1, 30, and 63). The third start site was chosen for the described experiments because the first two potential initiating codons lack appropriate sequence context for efficient translation initiation (see Kozak, 1996), and based on similarities of the protein derived from the third start site with a putative BBP1 orthologue from Drosophila melanogaster (Genbank accession M941984). FIG. 1 depicts this minimal BBP1 translation product to optimize the alignment with the other BBP subtypes. The PCR primers were 5′-TGGTGAATTC GAAAGTGTCG GTCTCAACG ATG G [SEQ ID NO:36] (+strand) and 5′-CTTCGTCGAC TTATGGATATAATTGCGTTTTTC [SEQ ID NO:37] (−strand). The PCR product was digested with EcoRI+SaII and cloned into pcDNA3.1/EcoRI−XhoI to create pOZ363. BBP2 and BBP3 expression plasmids were similarily engineered. […]

T3 sequence (P04897 213-355 limits assumed): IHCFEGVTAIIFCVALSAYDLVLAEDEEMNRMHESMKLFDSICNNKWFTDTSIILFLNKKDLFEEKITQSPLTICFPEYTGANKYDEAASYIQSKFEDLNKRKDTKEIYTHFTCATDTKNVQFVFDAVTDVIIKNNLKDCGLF
T1 sequence (P63095 235-394 limits assumed): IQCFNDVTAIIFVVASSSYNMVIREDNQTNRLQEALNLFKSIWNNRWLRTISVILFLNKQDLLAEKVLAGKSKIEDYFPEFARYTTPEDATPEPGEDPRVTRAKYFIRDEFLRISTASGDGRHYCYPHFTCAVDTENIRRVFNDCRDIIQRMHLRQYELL

B1: BBP2: 214 amino acid BBP family protein, SEQ ID NO:4; expressed from pFL11 (protein, listed as Homo sapiens)
chain: MVLGGCPVSYLLLCGQAALLLGNLLLLHCVSRSHSQNATAEPELTSAGAAQPEGPGGAASWEYGDPHSPVILCSYLPDEFIECEDPVDHVGNATASQELGYGCLKFGGQAYSDVEHTSVQCHALDGIECASPRTFLRENKPCIKYTGHYFITTLLYSFFLGCFGVDRFCLGHTGTAVGKLLTLGGLGIWWFVDLILLITGGLMPSDGSNWCTVY
Regarding B1, the “physical interaction with Gαs (Y2H growth response)” value in assay [1] was “preferential interactions”. In addition, the “physical interaction with Gαo (Y2H growth response)” value in assay [2] is reported as “no apparent association”. Further, in assay [3], the “physical interaction with Gαi (Y2H growth response)” value was “no apparent association”. Also, the “suppression of staurosporine-induced nuclear condensation (antiapoptotic activity), in words” value in assay [4] is on record as “suppressed the induction of nuclear condensation to the same levels as BBP1”.
